# Experimental data as given in the supplement of paper PMC8728848.
# The list shows a part of the results.
# B1: rAAL-2 (Agrocybe aegerita) (protein)
# chain: MTSNVITQDLPIPVASRGFADIVGFGLDGVVIGRNAVNLQPFLAVKNFAQNAGGWLTTKHVRLIADTTGTGKGDIVGFGNAGVYVSVNNGKNTFADPPKMVIANFGYDAGGWRVEKHLRYLADIRKIGRADIIGFGEKGVLVSRNNGGLNFGPATLVLKDFGYDAGGWRLDRHLRFLADVTGNGHLDIVGFGDKHVFISRNNGDGTFAPAKSVIDNFCIDAGGWKIGDHPRFVADLTGDGTADIIGCGKAGCWVALNNGGGVFGQVKLVINDFGTDKGWQAAKHPRFIADLTGNGRGDVVGFGNAGVYVALNNGDGTFQSAKLVLKDFGVQQGWTVSKHRRFVVDLTGDGCADIIGFGEKETLVSYNDGKGNFGPVKALTNDFSFSGGKWAPETTVCWMANLDSSRH
# How the values were obtained:
# Assay in all cases: glycan array binding signal (z-score within array); higher = stronger binding
# Details in all cases: glycan notation: IUPAC condensed, linker removed
# [1] = molecular target: GlcNAc(b1-4)GlcNAc
# Method in brief: (§1)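 Glycan array binding is given as a within-array Z-score, which can be read as non-binding when negative. The arrays, 3228 of them, came from the Consortium for Functional Glycomics database and were retained only where the protein sequence was available. Z-scores were averaged across arrays of the same protein sequence at different concentrations or buffers and across linkers.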
# [2] = molecular target: GlcNAc(b1-4)GlcNAc(b1-4)GlcNAc
# Method in brief: as §1
# [3] = molecular target: GlcNAc(b1-4)GlcNAc(b1-4)GlcNAc(b1-4)GlcNAc(b1-4)GlcNAc
# Method in brief: as §1
# [4] = molecular target: GlcNAc(b1-4)GlcNAc(b1-4)GlcNAc(b1-4)GlcNAc(b1-4)GlcNAc(b1-4)GlcNAc
# Method in brief: as §1
# [5] = molecular target: GlcNAc(b1-4)[GlcNAc(b1-6)]GalNAc
# Method in brief: as §1
# [6] = molecular target: GlcNAc(b1-6)Gal(b1-4)GlcNAc
# Method in brief: as §1
# [7] = molecular target: GlcNAc(b1-6)GalNAc
# Method in brief: as §1
# [8] = molecular target: GlcNAc3Prop(b1-4)GlcNAc
# Method in brief: as §1
# [9] = molecular target: GlcNAc6S(b1-3)Gal(b1-4)GlcNAc
# Method in brief: as §1
# [10] = molecular target: Kdn(a2-3)Gal(b1-3)GalNAc
# Method in brief: as §1
# [11] = molecular target: Kdn(a2-3)Gal(b1-3)GlcNAc
# Method in brief: as §1
# [12] = molecular target: Kdn(a2-3)Gal(b1-4)Glc
# Method in brief: as §1
# [13] = molecular target: Kdn(a2-3)Gal(b1-4)GlcNAc
# Method in brief: as §1
# [14] = molecular target: Kdn(a2-3)Gal(b1-4)[Fuc(a1-3)]GlcNAc
# Method in brief: as §1
# [15] = molecular target: Kdn(a2-6)Gal(b1-4)GlcNAc
# Method in brief: as §1
# [16] = molecular target: Man(a1-2)Man(a1-2)Man(a1-3)Man
# Method in brief: as §1
# [17] = molecular target: Man(a1-2)Man(a1-2)Man(a1-6)[Man(a1-3)]Man
# Method in brief: as §1
# [18] = molecular target: Man(a1-2)Man(a1-3)Man
# Method in brief: as §1
# [19] = molecular target: Man(a1-2)Man(a1-3)[Man(a1-2)Man(a1-6)]Man
# Method in brief: as §1
# [20] = molecular target: Man(a1-2)Man(a1-3)[Man(a1-2)Man(a1-6)]Man(a1-6)[Man(a1-2)Man(a1-2)Man(a1-3)]Man
# Method in brief: as §1
# [21] = molecular target: Man(a1-2)Man(a1-3)[Man(a1-2)Man(a1-6)]Man(a1-6)[Man(a1-2)Man(a1-2)Man(a1-3)]Man(b1-4)GlcNAc(b1-4)GlcNAc
# Method in brief: as §1
# [22] = molecular target: Man(a1-2)Man(a1-3)[Man(a1-6)]Man(a1-6)[Man(a1-2)Man(a1-3)]Man(b1-4)GlcNAc(b1-4)GlcNAc
# Method in brief: as §1
# [23] = molecular target: Man(a1-2)Man(a1-6)[Man(a1-3)]Man(a1-6)[Man(a1-2)Man(a1-2)Man(a1-3)]Man
# Method in brief: as §1
# [24] = molecular target: Man(a1-2)Man(a1-6)[Man(a1-3)]Man(a1-6)[Man(a1-2)Man(a1-2)Man(a1-3)]Man(b1-4)GlcNAc(b1-4)GlcNAc
# Method in brief: as §1
# [25] = molecular target: Man(a1-3)[Man(a1-6)]Man
# Method in brief: as §1
# [26] = molecular target: Man(a1-3)[Man(a1-6)]Man(a1-6)[Man(a1-2)Man(a1-3)]Man(b1-4)GlcNAc(b1-4)GlcNAc
# Method in brief: as §1
# [27] = molecular target: Man(a1-3)[Man(a1-6)]Man(a1-6)[Man(a1-3)]Man
# Method in brief: as §1
# [28] = molecular target: Man(a1-3)[Man(a1-6)]Man(a1-6)[Man(a1-3)]Man(b1-4)GlcNAc(b1-4)GlcNAc
# Method in brief: as §1
# [29] = molecular target: Man(a1-3)[Man(a1-6)]Man(b1-4)GlcNAc(b1-4)GlcNAc
# Method in brief: as §1
# [30] = molecular target: Man(a1-3)[Man(a1-6)]Man(b1-4)GlcNAc(b1-4)[Fuc(a1-6)]GlcNAc
# Method in brief: as §1
# [31] = molecular target: Man(a1-6)Man
# Method in brief: as §1
# [32] = molecular target: Man(b1-4)GlcNAc
# Method in brief: as §1
# [33] = molecular target: MurNAc(b1-4)GlcNAc
# Method in brief: as §1
# [34] = molecular target: Neu5Ac(a2-3)Gal
# Method in brief: as §1
# [35] = molecular target: Neu5Ac(a2-3)Gal(b1-3)GalNAc
# Method in brief: as §1
# [36] = molecular target: Neu5Ac(a2-3)Gal(b1-3)GalNAc(b1-3)Gal(a1-4)Gal(b1-4)Glc
# Method in brief: as §1
# [37] = molecular target: Neu5Ac(a2-3)Gal(b1-3)GalNAc(b1-4)Gal(b1-4)Glc
# Method in brief: as §1
binder,measurement,setting,value
B1,glycan array binding signal (z-score),[1],0.483
same,glycan array binding signal (z-score),[2],0.153
same,glycan array binding signal (z-score),[3],0.167
same,glycan array binding signal (z-score),[4],-0.006
same,glycan array binding signal (z-score),[5],-0.195
same,glycan array binding signal (z-score),[6],0.285
same,glycan array binding signal (z-score),[7],0.062
same,glycan array binding signal (z-score),[8],0.177
same,glycan array binding signal (z-score),[9],-0.312
same,glycan array binding signal (z-score),[10],-0.108
same,glycan array binding signal (z-score),[11],-0.141
same,glycan array binding signal (z-score),[12],-0.307
same,glycan array binding signal (z-score),[13],-0.254
same,glycan array binding signal (z-score),[14],-0.096
same,glycan array binding signal (z-score),[15],-0.269
same,glycan array binding signal (z-score),[16],-0.217
same,glycan array binding signal (z-score),[17],-0.259
same,glycan array binding signal (z-score),[18],-0.33
same,glycan array binding signal (z-score),[19],-0.275
same,glycan array binding signal (z-score),[20],-0.35
same,glycan array binding signal (z-score),[21],-0.274
same,glycan array binding signal (z-score),[22],-0.277
same,glycan array binding signal (z-score),[23],-0.274
same,glycan array binding signal (z-score),[24],0.05
same,glycan array binding signal (z-score),[25],-0.295
same,glycan array binding signal (z-score),[26],0.154
same,glycan array binding signal (z-score),[27],-0.208
same,glycan array binding signal (z-score),[28],-0.202
same,glycan array binding signal (z-score),[29],-0.239
same,glycan array binding signal (z-score),[30],-0.087
same,glycan array binding signal (z-score),[31],-0.177
same,glycan array binding signal (z-score),[32],-0.144
same,glycan array binding signal (z-score),[33],-0.168
same,glycan array binding signal (z-score),[34],-0.244
same,glycan array binding signal (z-score),[35],-0.184
same,glycan array binding signal (z-score),[36],-0.228
same,glycan array binding signal (z-score),[37],0.227
